Read counts are not given, so values of variants with three or more changes are uncertain.
B1: CPEB3 Ribozyme (parent)
chain: UAACAGGGGGCCACAGCAGAAGCGUUCACGUCGCAGCCCCUGUCAGAUUCUGGUGAAUCUGCGAAUUCUGCUGUAUAUCUC

Variants of: B1
Assay: self-cleavage, relative activity (ratio to wild type); higher = more cleavage; in vitro, sequencing
How it was run: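 Relative activity was defined as the cleaved/total read fraction for a variant divided by the same fraction for the unmutated ribozyme. CPEB3 self-cleaving ribozyme libraries were made by rounds of error-prone PCR, barcoded, and transcribed in vitro with T7 RNA polymerase for 5 hours at 37°C, and cleavage ran through transcription plus a 15 min DNase I step before EDTA. Illumina sequencing of template-switched reverse transcripts gave the reads, and DNA sequencing mapped the barcodes. Averages come from three batches, using variants with at least 5 reads.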

Row | Variant | self-cleavage
1 | UAACAGGGGGCCACAACAGAAGCGUUCACGUCGCAGCCCCAGUCAGAUUCUGGUGAAUCUGCGAGUUCUGCUGUAUAUCUC [G16A U41A A65G] | 0.12
2 | UAACAGGGGGCCACAACAGAAGCGUUCACGUCGCAGCCCCCGUCAGAUUCCGGUGAGUCUGCGUAUUCUGCUGUAUAUCUC [G16A U41C U51C A57G A64U] | 0.25
3 | UAACAGGGGGCCACAACAGAAGCGUUCACGUCGCAGCCCCUGCCAGUUUCUGGUGAGUCUGCGAAUUCUGCUGUACAUCUC [G16A U43C A47U A57G U76C] | 0.11
4 | UAACAGGGGGCCACAACAGAAGCGUUCACGUCGCAGCCCCUGUCAGAUCCUGGUUAAUCUGCGAAUUCGGCUGUAUAUCUC [G16A U49C G55U U69G] | 0.05
5 | UAACAGGGGGCCACAACAGAAGCGUUCACGUCGCAGCCCCUGUCAGAUCCUGGUGAAUCUGCGAAUUCUUCUGUAUAUCUC [G16A U49C G70U] | 0.12
6 | UAACAGGGGGCCACAACAGAAGCGUUCACGUCGCAGCCCCUGUCAGAUUCUGGAGAAUCUGCGAACUCUGCUGUAUAUCCC [G16A U54A U66C U80C] | 0.05
7 | UAACAGGGGGCCACAACAGAAGCGUUCACGUCGCAGCCCCUGUCAGAUUCUGGUGAAUCUGCGAAUACUGCAGUAUAUCUC [G16A U67A U72A] | 0.1
8 | UAACAGGGGGCCACAACAGAAGCGUUCACGUCGCAGCCCCUGUCAGAUUCUGGUGAAUCUGCGAAUCCUGCUGUCUAUCUC [G16A U67C A75C] | 0.13
9 | UAACAGGGGGCCACACCAGGAGCGUUCACGUCGCAGCCCCUGUCAGAUUCUGGAGAAUCUGCGAAUUCUGCUGUGUAUCUC [G16C A20G U54A A75G] | 0.52
10 | UAACAGGGGGCCACACCAGAGGCGUUCACGUCGCAGCCCCUGUCAGAUUCUGGUGUAUCUGCGAAUUCUGCCGUAUAUCCC [G16C A21G A56U U72C U80C] | 0.08
11 | UAACAGGGGGCCACACCAGAGGCGUUCACGUCGCAGCCCCUGUCAGAUUCUGGUGAAUCAGCGAAUUCUGCUGUAUAUCUC [G16C A21G U60A] | 0.05
12 | UAACAGGGGGCCACACCAGAGGCGUUCACGUCGCAGCCCCUGUCAGAUUCUGGUGAAUCUGCGAAGUCUGCUGUAUACCUC [G16C A21G U66G U78C] | 0.21
13 | UAACAGGGGGCCACACCAGAUGCGUUCGUGGCGCAGCCCCUGCCAGAUUCUGGUGAAUCUGCGAAUUCUGCUGUAUAUCUC [G16C A21U A28G C29U U31G U43C] | 0.07
14 | UAACAGGGGGCCACACCAGAAGCGUUCGCGUCGCAGCCCCUGUCAGAUUCUGGUGAAUCCUCGAAUUCUGCAGUAUAUCUC [G16C A28G U60C G61U U72A] | 0.1
15 | UAACAGGGGGCCACACCAGAAGCGUUCACGUCGCCGCCCCUGUCAGUUUCUGGUGAGUCCGCGAAUUCUGCUGUAUAUCUC [G16C A35C A47U A57G U60C] | 0.44
16 | UAACAGGGGGCCACACCAGAAGCGUUCACGUCGCAGCCCCUGUCAGGUUCUGGUGAAUCUGCGCAUUCUGCUGUAUAUCUC [G16C A47G A64C] | 0.16
17 | UAACAGGGGGCCACACCAGAAGCGUUCACGUCGCAGCCCCUGUCAGAUUCUGGUGUAUCUACGAAUUCUGCUGUAUAUCUC [G16C A56U G61A] | 0.1

Row | Variant | self-cleavage
18 | UAACAGGGGGCCACACCAGAAGGGUUCACGUCGCAGCCCCUGUCAGAUUCUGGUGAAUCUGCGGAUUCUGCUGUAAAUCUC [G16C C23G A64G U76A] | 0.17
19 | UAACAGGGGGCCACACCAGAAGUGUUCGCGUCGCAGCCCCUGUCAGAUUCUGGUGAAUCUGCGAAUUCUGCUGUAUAUCUC [G16C C23U A28G] | 0.23
20 | UAACAGGGGGCCACACCAGAAGUGUUCACGUCGCAGCCCUUGUCAGAUUCUGGUGAAUCUGCGAAUUCUGCUGUAUAUCUC [G16C C23U C40U] | 0.23
21 | UAACAGGGGGCCACACCAGAAGCGUUUACGUCGCAGCCCCUGUCAGAUUCUGGUGAAUCCGCGAAUUCUGCUGUAUAUCUC [G16C C27U U60C] | 0.14
22 | UAACAGGGGGCCACACCAGAAGCGUUCACGUCGCAGCCUCUGUCAGGUUCUGGUGCAUCUGCGAAUUCUGCUGUAUAUCUC [G16C C39U A47G A56C] | 0.07
23 | UAACAGGGGGCCACACCAGAAGCGUUCACGUCGCAGCCUCUGUCAGAUUCUGGUGGAUCUGCGAAUUCUGCUGUAUAUCCC [G16C C39U A56G U80C] | 0.06
24 | UAACAGGGGGCCACACCAGAAGCGUUCACGUCGCAGCCCCUGUCAGAUUCUGGUGAAUCUGAGAAUUCCGCUGUUUUACUC [G16C C62A U69C A75U A77U U78A] | 0.11
25 | UAACAGGGGGCCACACCAGAAGCUUUCACGUCGCAGCCCCUGUCAGAUUCUCGUGAAUCUGCGAAUUCUGCUGUAUAUCUC [G16C G24U G52C] | 0.15
26 | UAACAGGGGGCCACACCAGAAGCUCUCACGUCGCAGCCCCUGUCAGAUUCUCGUGAAUCUGCGAAUUCCGCUGUAUAUCUC [G16C G24U U25C G52C U69C] | 0.07
27 | UAACAGGGGGCCACACCAGAAGCGCUCUCGUCGCAGCCCCUGUCAGAUUCUGGUGAAUCUGCGAACUCUGGAGUAUAUCAC [G16C U25C A28U U66C C71G U72A U80A] | 0.06
28 | UAACAGGGGGCCACACCAGAAGCGUUCACGCCGCAGCCCCUGUCAGAUUCUGGUGAAUCUGCGGAUUCUGCUGUAUAUCUC [G16C U31C A64G] | 0.1
29 | UAACAGGGGGCCACACCAGAAGCGUUCACGCCGCAGCCCCCGUCAGAUUCUGGUGAAUCUGCGAAUUCUGCUGUAUAUCUC [G16C U31C U41C] | 0.2
30 | UAACAGGGGGCCACACCAGAAGCGUUCACGUCGCAGCCCCAGUCAGAUUCUGGUGAAUCUGCGAAUACUGCUGUAUAUCUC [G16C U41A U67A] | 0.2
31 | UAACAGGGGGCCACACCAGAAGCGUUCACGUCGCAGCCCCCGACAGAUUCUGGUGAAUCUGCGAAUUCUCCUGUAUAUCUC [G16C U41C U43A G70C] | 0.04
32 | UAACAGGGGGCCACACCAGAAGCGUUCACGUCGCAGCCCCUGUCAGAUUCUGGUGAAACUGAGAAUUCUGCUGUAUAUCUC [G16C U58A C62A] | 0.13
33 | UAACAGGGGGCCACAUCGGAAGCGUUCAAGUCGCAGCCCCUGUCAGACUCUGGUGAAUCUGCGAAUUCUCCUGUUUAUCUC [G16U A18G C29A U48C G70C A75U] | 0.09
34 | UAACAGGGGGCCACAUCGGAAGCAUUCUCGUCGCAGCCCCUGUCAGAUUCCGGUGAAUCUGCGAAUUCCGCUGUAUCUCUC [G16U A18G G24A A28U U51C U69C A77C] | 0.05

Source: the RNAGym collection of RNA variant scans (doi:10.1093/nar/gkz1192)
